The source of these data is PubChem BioAssay AID488969 (Vanderbilt High Throughput Screening Facility, 2010).

Whole data set: some 110,000 compounds, median “z-score” near -0.1, cut for the highest 2% near 2. The list shows a part of the results. Calls of active or inactive are those of the source.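 The calls were made as follows: active = z-score in the third read window above 3 or below -3; inactive = the rest.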

This assay deals with Metabotropic glutamate receptor 8 (Rattus norvegicus) (UniProt P70579). Description: mGluR8 Gi/Go-coupled signaling modulation – cell-based, rat, thallium flux, HTS, primary screen (AID 488969). Particulars: HEK293 rat mGluR8, GIRK (G protein-gated inwardly rectifying potassium channel) thallium flux, FluoZin2; at 10 µM; stronger effect = higher value; submaximal glutamate (EC20) added with thallium.
UniProt P70579, sequence (P70579 whole entry, looked up): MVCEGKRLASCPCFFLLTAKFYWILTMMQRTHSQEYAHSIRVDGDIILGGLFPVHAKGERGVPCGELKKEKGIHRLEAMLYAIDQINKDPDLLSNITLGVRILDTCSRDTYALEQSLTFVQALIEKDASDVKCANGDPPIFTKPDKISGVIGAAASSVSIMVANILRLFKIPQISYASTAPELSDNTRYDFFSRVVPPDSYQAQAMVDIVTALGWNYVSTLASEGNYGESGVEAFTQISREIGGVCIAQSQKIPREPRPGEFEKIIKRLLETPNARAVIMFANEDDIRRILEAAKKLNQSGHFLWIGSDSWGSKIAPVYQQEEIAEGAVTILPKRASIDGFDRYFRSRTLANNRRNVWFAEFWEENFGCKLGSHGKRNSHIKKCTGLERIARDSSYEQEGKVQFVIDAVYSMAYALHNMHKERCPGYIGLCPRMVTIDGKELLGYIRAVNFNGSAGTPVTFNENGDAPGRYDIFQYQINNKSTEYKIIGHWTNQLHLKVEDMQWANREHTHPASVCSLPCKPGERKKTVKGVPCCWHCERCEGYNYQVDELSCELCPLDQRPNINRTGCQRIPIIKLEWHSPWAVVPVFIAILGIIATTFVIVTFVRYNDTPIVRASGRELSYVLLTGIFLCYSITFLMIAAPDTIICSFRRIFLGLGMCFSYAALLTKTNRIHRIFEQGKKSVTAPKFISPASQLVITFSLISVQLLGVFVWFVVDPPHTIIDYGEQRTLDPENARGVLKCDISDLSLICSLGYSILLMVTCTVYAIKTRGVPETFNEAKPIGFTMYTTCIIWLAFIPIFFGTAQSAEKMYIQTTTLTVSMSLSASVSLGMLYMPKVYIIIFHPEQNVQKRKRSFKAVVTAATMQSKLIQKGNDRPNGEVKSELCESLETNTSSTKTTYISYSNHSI
Turning to `Cc1ccc(NC(=O)c2cccc(OCc3c(C)noc3C)c2)c(C)c1`, the z-score is -0.371.
In turn, `C=CCc1cccc(/C=N/c2ncn[nH]2)c1O` registered a z-score of -1.01.
With `Cc1ccc(N(CC(=O)NCc2cccnc2)S(C)(=O)=O)cc1C`, the z-score worked out at 0.196.
In turn, `Cc1ccc(S(=O)(=O)N2CCCCC2)cc1NC(=O)COC(=O)Cc1c(F)cccc1Cl` came in with a z-score of -2.09.
In turn, `Cc1ccc(C(O)(C(=O)NNS(=O)(=O)c2ccc(C)cc2)c2ccc(C)cc2)cc1` returned a z-score of 0.0411.
The compound `C=CCn1c(=O)c(C(=O)NCCNCC)c(O)c2ccccc21` displayed a z-score of 0.226.
For `COCCNC(=O)CSc1nc2ccccc2c(=O)n1-c1cccc(OC)c1`, the z-score was 1.26.
`COc1ccc2[nH]c(=O)c(NC(N)=S)nc2c1` came in with a z-score of 0.0038.
With `Cc1nnc(NC(=O)COc2ccc3c(C)cc(=O)oc3c2)s1`, the z-score is -0.0105.
The compound `Cc1cc(C)c2nc(/N=C(\N)NC(=O)Nc3ccccc3)nc(C)c2c1` yielded a z-score of -0.308.
The figure for `CC1CCN(c2cc(C#N)c(C#N)cc2[N+](=O)[O-])CC1` is -0.204.
The same measure for `C=CCn1c(SCC(=O)c2cc(C)n(CCOC)c2C)nc2sc(C)c(C)c2c1=O`: -0.255.
In turn, `O=[N+]([O-])c1ccc2nc(SCc3cn4cc(Cl)ccc4n3)[nH]c2c1` displayed a z-score of -0.392.
The figure for `Cc1ccsc1/C=N/Nc1nc2ccccc2[nH]1` is -1.75.
`O=C(Nc1cccc([N+](=O)[O-])c1)c1ccc(CSc2ccccc2)cc1` registered a z-score of -0.556.
`Cc1n[nH]c(=S)n1/N=C/c1ccc(-c2ccccc2[N+](=O)[O-])o1` gave a z-score of -0.049.
The compound `CCC(=O)NS(=O)(=O)c1cccnc1Nc1ccc(Cl)cc1` registered a z-score of -0.641.
In turn, `CSc1nc(Cl)c(Cc2ccc(OC(C)C)cc2)c(N(C)C)n1` had a z-score of -0.0715.
Compound `C=CCc1c(O)nc(SCC(=O)c2ccccc2)[nH]c1=O` registered a z-score of -0.154.
For the compound `CCOC(=O)c1ccc(-c2c(C(=O)OCC)oc3cc(O)c(CC)cc3c2=O)o1`, the z-score was -0.386.
For the compound `Cc1ccccc1C(=O)Nc1ccc2nc3n(c(=O)c2c1)CCC3`, the z-score is active: 3.87.
The figure for `O=C(Nc1ccc(F)c(F)c1)c1ccc(F)c(S(=O)(=O)N2CCOCC2)c1` is -0.228.
`CCOC(=O)c1oc2ccc(CNC3CCCCC3)c(Cl)c2c1C` displayed a z-score of 1.2.
The compound `Cc1cn(CC2COC(C)(C)O2)c(=O)[nH]c1=O` (stereo unspecified) returned a z-score of 0.0183.
In turn, `CCOC(=O)c1c(CN2CCCCC2)n(C)c2cc(Br)c(O)cc12` had a z-score of 0.123.
`CC(C)CCNC(=S)Nc1ccc([N+](=O)[O-])cc1` returned a z-score of 1.2.
The figure for `Cc1cc(C)nc(NS(=O)(=O)c2ccc(NC(=S)NC(=O)C(C)(C)C)cc2)n1` is -0.391.
`N#Cc1nc(-c2ccccc2Cl)oc1N1CCOCC1` had a z-score of -0.747.
In turn, `COCCCN1C(=O)c2[nH]nc(-c3cc(C)cc(C)c3O)c2C1c1ccc(O)c(OC)c1` (stereo unspecified) displayed a z-score of -0.788.
`O=C(O)/C(=C/c1ccco1)NC(=O)c1ccccc1` had a z-score of 0.0286.
The figure for `Cc1cccc(C)c1NC(=O)c1ccc(-n2cncn2)nc1` is 0.71.
`O=C(CCCc1ccccc1)c1ccc2c(c1)OCCO2` returned a z-score of 0.668.
`CCOP(=O)(OCC)C(Nc1cccc(C)c1)c1ccc(F)cc1` (stereo unspecified) yielded a z-score of -0.171.
The figure for `CSc1nnc(-c2sccc2OCc2ccccc2)n1C` is -0.529; for `CCOC(=O)c1c(C)[nH]c2cc(Br)c(OC)cc12` it is 0.302.
Compound `O=C(CN1C(=O)C2C3CCC(C3)C2C1=O)OCC(=O)c1cccc([N+](=O)[O-])c1` (stereo unspecified) gave a z-score of -0.253.
For `CCOc1ccc(NC(=O)CN2CCN(CC(=O)Nc3ccc4c(c3)OCO4)CC2)cc1`, the z-score was 0.0576.
The same measure for `COc1ccc2c(c1)NC(=O)CC(c1ccccc1)=N2`: -0.0551.
The figure for `CCC(=O)N(Cc1cc2cc(OC)ccc2[nH]c1=O)c1cccc(C)c1` is -0.0764; for `CN1CC(=O)N/C1=N\C(=O)Nc1ccc2c(c1)N(C)C(=O)CS2` it is -0.375.
`COc1ccc(C(=O)NCCn2cc(SCC(=O)NCc3ccco3)c3ccccc32)cc1` returned a z-score of -0.609.
The figure for `CCOC(=O)c1c(-c2ccc(-c3ccccc3)cc2)csc1NC(=O)C1C2CCC(O2)C1C(=O)O` (stereo unspecified) is -0.798; for `CCN(CC)C(=O)C1CC(=O)OC12CCCCC2` (stereo unspecified) it is -0.477.
As to `Cn1cnnc1SCC(=O)Nc1ccc2nc(SCc3ccccc3F)sc2c1`, the z-score was 0.22.
`CCN(CC)CCCN1C(=O)C(O)=C(C(C)=O)C1c1cccc(OC)c1` (stereo unspecified) came in with a z-score of -0.657.
In the case of `COC(=O)c1ccc(C(=O)OC)c(NC(=O)CCC(=O)O)c1`, the z-score is -0.414.
Take `CC(C)(C)c1nn(-c2ccccc2)c2[nH]c(=O)c(CNCc3ccc4c(c3)OCO4)cc12`: the z-score is active: -3.84.
The same measure for `CC(C)C(=O)Nc1nc2c(ncn2C2CC(O)C(CO)O2)c(=O)[nH]1` (stereo unspecified): -0.334; for `CN(CC(=O)NCc1cccs1)S(=O)(=O)c1cccc2nsnc12`: -0.328.
The compound `CCC(C)NC(=O)COC(=O)c1ccccc1OCC(=O)Nc1ccc(Br)cc1` (stereo unspecified) had a z-score of -0.0999.
The same measure for `Cc1ccc(NS(=O)(=O)c2cn(C)cn2)cc1`: 0.665.
`Cc1ccccc1C(=O)Oc1ccccc1C(=O)N1CCOCC1` came in with a z-score of -0.0659.
Regarding `COC(=O)C(NC(C)=O)(Nc1nc2c(C)cc(C)cc2s1)C(F)(F)F` (stereo unspecified), the z-score was 1.39.
In turn, `Cc1ccc(N2C(=O)CC(Cn3nc(C)cc3C)C2=O)cc1` (stereo unspecified) showed a z-score of -0.128.
The figure for `COC(=O)C1CSC(C(=O)OC)N1C(=O)Nc1c(C)cccc1C` (stereo unspecified) is 1.02.
The compound `O=C(c1cccnc1)N(Cc1ccccc1)c1ccccc1` had a z-score of 0.664.
The same measure for `O=S(=O)(NCc1ccc(F)cc1)c1ccc2c(c1)OCCO2`: -0.787.
Regarding `COc1cnc(-c2ccccn2)nc1Sc1c(Cl)cccc1Cl`, the z-score is -0.214.
The same measure for `O=C(COC(=O)c1cccnc1SCC(=O)NCc1ccccc1)NCc1ccccc1`: -0.219; for `CCOc1cc(S(=O)(=O)N(Cc2ccccc2)Cc2ccccc2)c(OCC)cc1-n1cnnn1`: 0.151; for `CCCCn1c(NC(C)=O)c(C#N)c2nc3ccccc3nc21`: -0.341.
In the case of `Fc1ccccc1CNc1cc(Cl)cc(Cl)c1`, the z-score amounted to 0.0979.
The same measure for `COc1ccc(OCCCC(=O)NCc2ccco2)cc1`: 0.959; for `O=C(COC(=O)c1ncc(Cl)c(Cl)c1Cl)c1ccc(Cl)s1`: -0.0905.
The same measure for `CCC(C(=O)OCC(=O)Nc1cc(Cl)ccc1Cl)c1ccccc1` (stereo unspecified): 0.227; for `Cn1nnnc1Sc1c(Cl)cccc1[N+](=O)[O-]`: 0.113.
The same measure for `O=C(CNC(=O)C1CCCCC1)Nc1ccccc1`: -0.229; for `N#Cc1nc(-c2ccco2)oc1N1CCN(c2cccc(Cl)c2)CC1`: -0.331; for `CCOC(=O)CNC(=O)c1cn(CC(C)C)c(=O)c2cc(OC)c(OC)cc12`: 0.1.
For `CC(C)CC(=O)NC(=S)N1CCCCCC1`, the z-score was found to be 0.255.
`Cc1occc1-c1nnc(SCC(=O)Nc2ccccc2)n1Cc1ccccc1` showed a z-score of -0.4.
Take `O=C(c1ccc(COc2c(F)c(F)c(F)c(F)c2F)o1)N1CCOCC1`: the z-score is -1.74.
The compound `CC(=O)c1cccc(NC(=O)CC2Oc3ccc(C)cc3NC2=O)c1` (stereo unspecified) returned a z-score of -0.586.
The figure for `Cc1nnc2n(C3CCCCC3)c(=O)c3c4c(sc3n12)COC(C)(C)C4` is active: -3.22.
`CC(Oc1ccc(Cl)cc1Cl)c1nc(-c2ccc(NC(=O)c3ccncc3)cc2)no1` (stereo unspecified) returned a z-score of 0.343.
The figure for `CC1=CCC2C(=O)N(c3ccccc3OC(=O)c3ccccc3F)C(=O)C2C1` (stereo unspecified) is -0.238.
The same measure for `CCn1c(SCC(=O)Nc2cc(F)ccc2C)nnc1-c1ccccc1O`: -0.432.
Compound `CCCOc1ccc(-c2nc(C#N)c(N3CCc4ccccc4C3)o2)cc1` came in with a z-score of 0.2.
The figure for `O=C(CCNC(=O)c1ccccc1Cl)Nc1nc(-c2ccc3ccccc3c2)cs1` is -0.106.
The same measure for `COC(=O)c1ccccc1NC(=O)C(=O)NCC1CCCO1` (stereo unspecified): -0.0272; for `COc1ccccc1-c1c(C)oc2cc(OCC(=O)OCc3ccccc3)ccc2c1=O`: 1.27.
As for `CC(=O)c1c(C)[nH]c(C(=O)COC(=O)CCSc2ccccc2)c1C`, the z-score came out at 0.265.
`COc1cccc2[nH]c3c(N4CCC(C)CC4)ncnc3c12` displayed a z-score of -0.0729.
As to `O=C(O)c1ccc2c(c1)C(=O)N(Cc1ccc3c(c1)OCO3)C2=O`, the z-score was -0.312.
Take `COc1ccc(-c2csc(NC(=O)Cn3nc(C)cc3C)n2)cc1`: the z-score worked out at 0.319.
The figure for `CCOc1ccc(-n2nnc3c(=O)n(CC(=O)N4CCCc5ccccc54)cnc32)cc1` is 0.852.
The same measure for `CCCn1c(C)cc(/C=C(\C#N)C(=O)OCC(=O)Nc2cc(OC)c(OC)c(OC)c2)c1C`: -0.21; for `Nc1nc(-c2ccco2)nn1C(=O)c1ccccc1`: 0.00452.
`CCOC(=O)Cn1cc(C=O)c2ccccc21` returned a z-score of -0.0727.
`COc1ccc(CN2CCSCC2)cc1O`: the z-score is -0.199.
The figure for `O=C(NC1CC1)C1=COCCO1` is -0.21.
`COc1ccc(CNC(=O)CN(Cc2ccc(Cl)cc2)S(C)(=O)=O)cc1` displayed a z-score of -0.615.
In turn, `Cc1cc(C)c(NC(=O)C2CCCCN2C)c(C)c1` (stereo unspecified) registered a z-score of -0.0533.
The figure for `Clc1ccc(-c2nnc(-c3ccccc3)nc2N2CCSCC2)cc1` is -0.0425; for `O=C(CCl)Nc1ccc(Oc2cnc3ccccc3n2)cc1` it is -0.78; for `COC(=O)CN(c1nc(C)cc(OC)n1)S(=O)(=O)c1ccccc1` it is -0.5.
The same measure for `COc1ccccc1CN(Cc1nc2ccccc2c(=O)[nH]1)C(=O)Nc1cccc(C)c1`: -0.0538; for `Cc1ccc(N2C(=N)SCC2=O)cc1Cl`: -0.127; for `CCN(CC)c1ccc(/C=N/NC(=O)CN2CCCc3ccccc32)cc1`: -0.854.
With `Cn1c(=O)c2cc(S(=O)(=O)NCCC(=O)NCCc3ccc(Cl)cc3)ccc2n(C)c1=O`, the z-score is 0.3.
`COc1ccc(CCCc2nnc(SCC(=O)Nc3nc(C)cs3)n2C)cc1` had a z-score of 0.338.
The figure for `CCCC(=O)NC(=S)N1CCN(c2ccc([N+](=O)[O-])cc2)CC1` is 0.00262; for `O=C1OC2(CCCCC2)OC(=O)C1=CNc1ccc2c(c1)OCO2` it is 0.207; for `CCc1cccc(NC(=O)c2ccc(NS(=O)(=O)c3c(C)noc3C)cc2)c1` it is 0.228.
`COc1ccccc1N(CN1C(=O)c2ccccc2C1=O)C(=O)c1cccc(C)c1` registered a z-score of -1.21.
With `CCn1c(COc2cccc(C)c2)nc2ccccc21`, the z-score is -0.292.
`COc1cc(NS(=O)(=O)c2ccc(NC(=S)NC(=O)C(C)(C)C)cc2)nc(OC)n1` returned a z-score of -0.11.
`CCCCNC(=O)COC(=O)c1ccc(Cl)c(S(=O)(=O)N2CCCC2)c1`: the z-score was -1.75.
The same measure for `O=C(CC1Oc2ccccc2NC1=O)NCCCN1CCCC1=O` (stereo unspecified): 1.28; for `Cc1ccc(OC(C)C(=O)Nc2ccc(C)c(S(=O)(=O)Nc3ccc(C)cc3C)c2)cc1` (stereo unspecified): 0.0199; for `CC(C)(C)Nc1nc(C(N)=O)nc(N2CCOCC2)n1`: 0.297.
